Measurements published in the supplement of paper PMC7826260.
Some of the results follow. Viral Rep nickase domains cut single-stranded DNA in vitro at 3 µM enzyme and 37 °C for 1 h; the strands have 90 letters, of which the middle is given. Values are log2 of uncut reads against the no-enzyme pool; more negative means more cut, near 0 not cut, and no call is made. Shares of all reads are compared, so uncut sequences can rise above 0 when many others are cut.

Tests used:
Assay in all cases: uncleaved DNA left, log2 of reads against the no-enzyme library (log2 ratio); higher = less cleavage (more negative = more Rep cleavage of the k-mer); sequences stand for … in CTCGTCCG…ACCGGAGA
[1] = tested on: T1, Rep nickase domain of Muscovy duck circovirus
T1 sequence (residues 1-111, tag not shown): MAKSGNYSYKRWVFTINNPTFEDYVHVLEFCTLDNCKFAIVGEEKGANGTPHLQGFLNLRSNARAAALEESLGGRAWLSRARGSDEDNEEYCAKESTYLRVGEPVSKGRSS
Method: (§1)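 A pool of 90-nt single-stranded DNAs with seven random bases just before the constant AC of the nick site (name = the seven bases) was cut by 3 µM recombinant His6-SUMO-tagged Rep nickase domain (300 nM DNA, 50 mM HEPES pH 8.0, 50 mM NaCl, 1 mM MnCl2, 1 h, 37 °C, three replicates). Uncut DNA was amplified and sequenced.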

[2] = tested on: T2, Rep nickase domain of banana bunchy top virus
T2 sequence (residues 1-94, tag not shown): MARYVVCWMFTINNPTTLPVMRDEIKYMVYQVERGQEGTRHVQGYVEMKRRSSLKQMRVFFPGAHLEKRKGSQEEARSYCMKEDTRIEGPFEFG
Method: as §1

[3] = tested on: T3, Rep nickase domain of cabbage leaf curl virus
T3 sequence (residues 1-116, tag not shown): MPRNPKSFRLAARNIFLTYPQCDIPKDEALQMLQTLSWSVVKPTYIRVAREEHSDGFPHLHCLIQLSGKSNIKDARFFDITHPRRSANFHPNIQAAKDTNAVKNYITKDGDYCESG
Method: as §1

[4] = tested on: T4, Rep nickase domain of chickpea chlorotic dwarf virus
T4 sequence (residues 1-124, tag not shown): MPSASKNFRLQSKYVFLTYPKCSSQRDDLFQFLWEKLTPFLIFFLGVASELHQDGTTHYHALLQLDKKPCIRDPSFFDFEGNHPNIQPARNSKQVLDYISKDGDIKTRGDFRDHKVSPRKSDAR
Method: as §1

[5] = tested on: T5, Rep nickase domain of faba bean necrotic yellows virus
T5 sequence (residues 1-98, tag not shown): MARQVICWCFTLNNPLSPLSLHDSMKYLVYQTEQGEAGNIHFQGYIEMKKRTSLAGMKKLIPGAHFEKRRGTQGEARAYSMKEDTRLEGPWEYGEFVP
Method: as §1

[6] = tested on: T6, Rep nickase domain of maize striate mosaic virus
T6 sequence (residues 1-117, tag not shown): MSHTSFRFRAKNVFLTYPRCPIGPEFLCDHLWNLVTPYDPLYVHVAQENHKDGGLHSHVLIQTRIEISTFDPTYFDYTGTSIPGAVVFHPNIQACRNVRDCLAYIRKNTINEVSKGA
Method: as §1

[7] = tested on: T7, Rep nickase domain of porcine circovirus 2
T7 sequence (residues 2-116, tag not shown): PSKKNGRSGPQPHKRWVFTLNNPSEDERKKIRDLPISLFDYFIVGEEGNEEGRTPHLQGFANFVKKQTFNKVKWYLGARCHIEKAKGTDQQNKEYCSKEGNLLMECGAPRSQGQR
Method: as §1

[8] = tested on: T8, Rep nickase domain of tomato golden mosaic virus
T8 sequence (residues 1-124, tag not shown): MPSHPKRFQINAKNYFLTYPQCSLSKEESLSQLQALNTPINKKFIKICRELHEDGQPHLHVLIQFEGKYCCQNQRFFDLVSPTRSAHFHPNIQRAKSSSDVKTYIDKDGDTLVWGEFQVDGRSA
Method: as §1

[9] = tested on: T9, Rep nickase domain of tomato yellow leaf curl virus
T9 sequence (residues 1-136, tag not shown): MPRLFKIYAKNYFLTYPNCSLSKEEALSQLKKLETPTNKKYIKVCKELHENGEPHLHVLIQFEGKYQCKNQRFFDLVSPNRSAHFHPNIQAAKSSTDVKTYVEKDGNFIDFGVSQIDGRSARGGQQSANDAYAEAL
Method: as §1

[10] = tested on: T10, Rep nickase domain of wheat dwarf virus
T10 sequence (residues 1-137, tag not shown): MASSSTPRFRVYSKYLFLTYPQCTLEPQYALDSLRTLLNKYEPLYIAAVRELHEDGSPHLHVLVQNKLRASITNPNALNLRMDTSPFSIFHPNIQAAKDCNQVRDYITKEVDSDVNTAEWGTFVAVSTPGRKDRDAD
Method: as §1

| Sequence | uncleaved DNA left (log2) [1] | uncleaved DNA left (log2) [2] | uncleaved DNA left (log2) [3] | uncleaved DNA left (log2) [4] | uncleaved DNA left (log2) [5] | uncleaved DNA left (log2) [6] | uncleaved DNA left (log2) [7] | uncleaved DNA left (log2) [8] | uncleaved DNA left (log2) [9] | uncleaved DNA left (log2) [10] |
| --- | --- | --- | --- | --- | --- | --- | --- | --- | --- | --- |
| AAAGTCT | -0.00408 | -0.0345 | -1.31 | -2.75 | -0.024 | -0.351 | -0.365 | -0.0821 | -0.126 | -0.285 |
| AGCTATA | -0.0703 | -0.00459 | -0.129 | -0.418 | -0.000503 | 0.173 | -0.873 | -0.00629 | -0.0631 | 0.107 |
| GACCGGA | 0.0473 | 0.0645 | 0.243 | 0.643 | 0.0222 | 0.303 | 0.134 | 0.116 | 0.0431 | 0.0457 |
| CCTCACA | -0.183 | -0.0313 | -0.0886 | -1.61 | -0.0743 | -0.654 | -0.0446 | -0.127 | 0.0106 | -0.0685 |
| GAGTTAT | -0.104 | -0.401 | 0.358 | 0.531 | -0.225 | 1.52 | -2.91 | 0.126 | 0.108 | 0.278 |
| GTTACAC | -0.139 | -0.00524 | 0.194 | 0.744 | -0.108 | 1.54 | -0.0113 | -0.00447 | 0.00203 | -0.0309 |
| AGTTAAC | 0.0204 | 0.0461 | -0.201 | -1.1 | -0.0442 | -0.35 | -0.0128 | 0.0272 | -0.00479 | 0.0105 |
| AAGCTCA | 0.0812 | 0.14 | 0.126 | -1.31 | 0.106 | 0.575 | -0.642 | 0.0401 | 0.0888 | 0.17 |
| TCATTAG | -0.0014 | -0.0182 | -0.777 | -0.573 | 0.00937 | -1.26 | 0.103 | -0.00543 | 0.0716 | -0.0728 |
| ACGACTA | 0.0903 | 0.0536 | -0.0382 | 0.292 | 0.0746 | 1.06 | 0.0298 | 0.123 | -0.117 | 0.0339 |
| TCCTTCC | -0.0214 | -0.0161 | 0.147 | -0.168 | 0.0283 | -0.402 | 0.0165 | -0.158 | -0.0491 | -0.0875 |
| CTATACC | -0.138 | -0.0959 | -0.112 | -1.54 | -0.094 | -0.577 | -0.822 | -0.0407 | -0.147 | -0.0671 |
| GCTGCGT | 0.00467 | -0.111 | -0.778 | -0.0223 | 0.0209 | -0.747 | 0.143 | -0.107 | 0.0874 | -0.168 |
| TCGATGT | -0.0232 | -0.0812 | -0.0476 | 0.0501 | 0.0429 | 0.0745 | -0.108 | -0.146 | -0.13 | -0.035 |
| CCCCTCA | -0.0589 | 0.035 | -0.0489 | -0.854 | -0.0398 | -0.393 | -0.197 | -0.172 | -0.0375 | 0.0112 |
| GAGTCGG | 0.0689 | 0.0743 | 0.462 | 1.18 | 0.0339 | 1.53 | 0.0502 | 0.0865 | -0.0482 | 0.011 |
| ACGCAAC | -0.086 | -0.152 | -0.158 | -0.942 | -0.0458 | -0.613 | 0.111 | -0.0528 | -0.00549 | -0.0923 |
| AAGCCGT | 0.044 | -0.0338 | -0.212 | -0.533 | 0.125 | -0.523 | -0.123 | 0.0995 | -0.0996 | 0.0319 |
| CTCGTTT | -0.062 | -0.116 | -0.0557 | -1.76 | 0.111 | -0.425 | -0.763 | -0.0405 | 0.052 | 0.0157 |
| TTTAATA | -0.0116 | -0.0278 | 0.0806 | -1.08 | 0.024 | -0.185 | -0.0911 | 0.0208 | 0.0558 | 0.105 |
| AATCGCT | 0.0193 | 0.0305 | -0.469 | -1.76 | 0.0545 | -1.04 | -1.19 | -0.00608 | 0.0572 | -0.071 |
| AAGTGCC | -0.0832 | -0.0998 | -0.443 | -0.554 | -0.0235 | -0.926 | -0.835 | -0.108 | 0.076 | -0.117 |
| TGCGAGG | -0.0655 | -0.107 | 0.0322 | 0.515 | -0.165 | 1.41 | -0.0887 | -0.034 | -0.0955 | -0.02 |
| TGTTGTC | -0.034 | -0.0699 | 0.0921 | 0.0852 | -0.0687 | -0.345 | -0.00568 | -0.13 | -0.0288 | -0.0451 |
| TAGTTCG | -0.0847 | 0.0491 | -0.795 | -0.0551 | 0.0821 | -1.16 | -0.385 | -0.122 | 0.101 | -0.109 |
| TCTGGTC | 0.244 | 0.138 | 0.269 | 0.274 | 0.0227 | 0.153 | 0.227 | 0.0251 | 0.185 | 0.218 |
| ACGGCGC | -0.0226 | -0.147 | -0.531 | 0.0841 | -0.112 | -0.417 | 0.0686 | -0.102 | -0.0583 | -0.145 |
| TGAAGAG | 0.0418 | 0.0914 | -0.0843 | -0.335 | 0.0915 | -0.802 | 0.141 | 0.1 | 0.145 | -0.0208 |
| CGTGACA | -0.0431 | 0.00113 | 0.416 | 0.752 | -0.155 | 1.32 | 0.0102 | -0.181 | -0.0629 | -0.0551 |
| AAAGCTC | 0.0227 | -0.0172 | 0.188 | 0.272 | 0.0443 | 0.862 | 0.131 | 0.119 | -0.0711 | -0.0115 |
